This is an account of results in publication PMC12136788.

The chains are these.
B1: chr19:39321778:39321779:-_ENSG00000104823_ENST00000221418|hu_mus|FALSE|FALSE (ssRNA)
RNA: GGGAGUUCUACAGUCCGACGAUCAGUGAACAUCUUUCCUGCACCGGAGACUACAACAGCCCGGCAGUCCGAGUCUUUGGAUAUCUUUUGGAAGCAUUCCACCAACUCCCUCCAGAAAGCCCUGUUCAUGGCAUUCCUCUUCUCCAACAGAGGAUUGAGCAUCA
B2: chr12:16048344:16048345:+_ENSG00000023734_ENST00000419869|hu_hu|hu_hu_hu_mus_True|1_18 (ssRNA)
RNA: GGGAGUUCUACAGUCCGACGAUCAGAUCGUCCAUAAGUAAUAACCAAAAUCUCUCCUUCAGGAAUAUACUCCAUGCUGCUAACAGACAUAUUAAAAUUCAGAGAUUUCACUUCUGUCAUAGUAGCAUGAUCCCAGAGUCGAACCAACAGAGGAUUGAGCAUCA
B3: chr7:6441565:6441566:+_ENSG00000136238_ENST00000348035|hu_hu|motif|central (ssRNA)
RNA: GGGAGUUCUACAGUCCGACGAUCGGUGAUGGGAGUCAGCUUCUUCUCCUUCAGUUUCUCGAUCGUGUCUUUAUCAUCCCGGAGAUCAAGUUUAGUUCCCACUAGGAUGAUGGGAGUGUUGGGACAGUGGUGCCGCACCUCAGGCAACAGAGGAUUGAGCAUCA
B4: 75614384_75618798_385_CDS_ENSG00000170348_ENST00000303575|human|control|control (ssRNA)
RNA: GGGAGUUCUACAGUCCGACGAUCCUCCACUCCAUGCUUCAUGUCUAGGAUCACGAGUUGGUCAGGUAUCCGCCCUGUUCCCUUGCUCUCAAAACACACUUCAAACAUGUCAUAAUCUUCAGUGGUAAAGGCAAAUUUCCCCUUCAACAGAGGAUUGAGCAUCA
B5: 130712922_130715554_2226_CDS_ENSG00000017260_ENST00000359644|human|control|control (ssRNA)
RNA: GGGAGUUCUACAGUCCGACGAUCCAAUGAGAUUAAAGUUAAUGCUGCUAUACUCGUGCUCAGCUGGAAUCUAACGAAAUUUUUAAUGUUAUUAUAAAUCCCUUUACCCUCUUCGAUUGCAGACAUUAUGGUUUGAAAAUCAUCCAACAGAGGAUUGAGCAUCA
B6: chr12:60073987:60073988:-_ENSMUSG00000020986_ENSMUST00000021375|perfect_dup|motif|central (ssRNA)
RNA: GGGAGUUCUACAGUCCGACGAUCCUGGGUCAGAUCCUGACGCAUGAAAUGGUGACGAUAGUAUGAACUCUCAUCAGGACGGUUGUUAAAAACUUGCAAGAAAGGAGAUCUUCUUAAAUGAAACAUAAACUGAGGAUAAAGAGACAACAGAGGAUUGAGCAUCA
B7: chr4:140556289:140556290:+_ENSMUSG00000036622_ENSMUST00000037055|mus_mus|mus_mus_mus_hu_False|8_18 (ssRNA)
RNA: GGGAGUUCUACAGUCCGACGAUCGAUGGAGCUCACCAGGCCCCCUUUUGCCGUGCAGAACCCUGUGCGGGUCACCACUGCCAGGACGUGCGGUCCCACAUAGGCCCGGGCCUGCAAAAUGAGGGUGCCACAGAAGAGUGUGUGCAACAGAGGAUUGAGCAUCA
B8: chr11:5855929:5855930:+_ENSMUSG00000002741_ENSMUST00000002818|mus_hu|FALSE|FALSE (ssRNA)
RNA: GGGAGUUCUACAGUCCGACGAUCACACAUCGUAUGCGGCUUUGAGCAGCACCACCUUGGCCUCGCCUUUGUAGAGGACGCUGAGGCUGUACAGCUUCAUGGCUCCGCGCCCUCAGGCCGCCCGCCUGCCCAGCUGCGGGACCCCAACAGAGGAUUGAGCAUCA
B9: chr6:51416999:51417000:-_ENSMUSG00000004980_ENSMUST00000090002|mus_mus|FALSE|FALSE (ssRNA)
RNA: GGGAGUUCUACAGUCCGACGAUCAUCAAUGGAAUGGGGCCUUGCAGCCAUGGCAGCGUCAACCUCGGCCAUGGAUGAGAAAGUUACAAAGCCAAAUCCUCUUGAUCUUUUGCUUGCAGGAUCCCGCAUAACCACACAGUCUGUCAACAGAGGAUUGAGCAUCA
B10: chr11:102221366:102221367:+_ENSG00000110330_ENST00000227758|hu_hu|FALSE|FALSE (ssRNA)
RNA: GGGAGUUCUACAGUCCGACGAUCCCAGUACAUAAAUGUUCUCAUUCGAGCUGCAUGUGUCUGCAUGCUCAGAUUUGAAAUGCUAAACCUCAGAGUUUCUAGAGAAUUUUCCAAAAAUGGACAGUUGGGAAAAUGCCUCCGGUGCAACAGAGGAUUGAGCAUCA
B11: chr3:176767854:176767855:-_ENSG00000177565_ENST00000430069|hu_hu|hu_hu_hu_mus_False|8_88 (ssRNA)
RNA: GGGAGUUCUACAGUCCGACGAUCGACAUCCUUGUUACUGGGCACGUCUUGCCCUCCUUCCCGUAUGCAGUGUCUAAGCACGAGCUGCGUAGGGCCACUCGUGCUGUUCUCACUGAGGUUCCAGAUUCUUGCUGUUGAGUCUCCCAACAGAGGAUUGAGCAUCA
B12: chr1:52766434:52766435:-_ENSMUSG00000041439_ENSMUST00000156876|mus_hu|motif|central (ssRNA)
RNA: GGGAGUUCUACAGUCCGACGAUCGACCUUGGAAAUUAGAAGAUCGUUGUUUAUCUUAACACAAUGUUUCUCUAUCCAGUCGGUUUCCUCCUCAGGAAUAGCAGAUGUUUCUGUGGAGGAAGGUGUUUCAUUCGAAGGUGGUUCCAACAGAGGAUUGAGCAUCA
B13: chr18:34792849:34792850:-_ENSMUSG00000024370_ENSMUST00000133181|mus_mus|motif|central (ssRNA)
RNA: GGGAGUUCUACAGUCCGACGAUCGAUCUAUAGCACCUACUGCACAAGCUCAUUGUAGCAGACAUCAAGUGGCUCUGAAACCGGGAAAAACACAGUGAAUUCUUCAACCUUGUAGAUAAGGUUGAAAACCAAAUUGGAGACUUUCAACAGAGGAUUGAGCAUCA
B14: chr11:46405157:46405158:+_ENSG00000110492_ENST00000395566|hu_hu|hu_hu_hu_mus_False|1_108 (ssRNA)
RNA: GGGAGUUCUACAGUCCGACGAUCCCCUUAGGGGUGGGGGCACUUGGUGUGGGCGUGAGAGGACAGGCGUGAUUGACAGAGCUGACAGGAAGACAAAAGGCACUGGUGGGUUAUAUCUUGGGCCUGUGGGAGAGGAGGCGUGGGCAACAGAGGAUUGAGCAUCA
B15: chr6:38652254:38652255:-_ENSG00000124767_ENST00000373365|hu_hu|hu_hu_hu_mus_False|18_48 (ssRNA)
RNA: GGGAGUUCUACAGUCCGACGAUCCGAGAACUUCAUAGCAGGGAAGUCAAGCUUCUGCAGGAGGGUCAGUCCAAGAACCCUCGUAUAAAAAUCCAGUGACUUCUUAGGAUCCUUAAUUCGUAGCAUGGUUUGCUGCAGUAGAAACAACAGAGGAUUGAGCAUCA
B16: chr14:66974463:66974464:+_ENSMUSG00000022044_ENSMUST00000074523|mus_hu|mus_mus_mus_hu_False|88_108 (ssRNA)
RNA: GGGAGUUCUACAGUCCGACGAUCUUGUAGGAUGAUUUAUUCAGGGGAUCAGACAAGAAGCAGGAGCAGAACAAGGACACCAGCGGGAGCUCCUUCAUCUUCUCUUUGUAGGCAGCAAGGGUCAUGUUUCUGGGAUCUGGUGGCCAACAGAGGAUUGAGCAUCA
B17: chr11:20101544:20101545:+_ENSMUSG00000020149_ENSMUST00000020358|mus_mus|motif|central (ssRNA)
RNA: GGGAGUUCUACAGUCCGACGAUCUGACGCAGCCGCCGCCCCAACUCUCCGCGCCACAGGUAAUGGAAAGGGAGGAAUGAGCGGAGCUGUUCCGGUAGAGCAAACGUCGACCCCACUCCGACCCUUAGAACACAAUCAGCAGCCCAACAGAGGAUUGAGCAUCA
B18: chr2:115689334:115689335:-_ENSMUSG00000027210_ENSMUST00000074285|mus_mus|FALSE|FALSE (ssRNA)
RNA: GGGAGUUCUACAGUCCGACGAUCGCUCUUUGAAGAACAGUCCCCCAAAAUCAUAAUAAGAAUUGGCUUAUGAAGCACAAACUAUAAAGAUCUGUUUGAAACUAAAGGACACAUGGACGGGGGGAACAAAGGCCGGGCAUGAAACAACAGAGGAUUGAGCAUCA
B19: chr13:22070289:22070290:-_ENSG00000165487_ENST00000382374|hu_hu|motif|central (ssRNA)
RNA: GGGAGUUCUACAGUCCGACGAUCAGCAAAGUCUUCCAAGUGGGUUGUAAAAUGGCAAAAUGACUUGAAUUCAUCCAAACGGAUGCUCUCUCCUGCUGACAACUUCUCUCUCACAUUUUUCCAAUAAAUAUCUUUAUUUUCAGUCAACAGAGGAUUGAGCAUCA
B20: 10258623_10260999_921_CDS_ENSG00000150753_ENST00000503026|human|control|control (ssRNA)
RNA: GGGAGUUCUACAGUCCGACGAUCGCGAACCGCAGGCAAGUUGUUCUGAAGAAGUAAGUGAUUUGCUUCAUCAUCAAAGCCCCACUGACAAAUUGCUAGGUUAGCACCAGUCUCUUUAAUUUGUUGAAUCAUCUCUUCAAAUUUCAACAGAGGAUUGAGCAUCA
B21: chr1:224612315:224612316:-_ENSG00000162923_ENST00000295024|hu_hu|motif|central (ssRNA)
RNA: GGGAGUUCUACAGUCCGACGAUCCGUCAAUUCACAGCGUAGAACUUGAAGUGCCUCCAGGACCUUGCCAUCCUCCAGGUAUUCGGGGUACUUCUGCUGCAGCAGCAAAAACUUCAUCCUCACAAUUAUUCCCAACAACGUUUGCAACAGAGGAUUGAGCAUCA
B22: chr9:53370893:53370894:+_ENSMUSG00000033054_ENSMUST00000035850|mus_mus|motif|central (ssRNA)
RNA: GGGAGUUCUACAGUCCGACGAUCCGCUGCAUCAUUAGAGAGCUGUUUAUCUGAAGGGGCUGGUUCUUCAAGAUGAAUUUCGGUUUUCUCAGUCACAUUUACACCCAAACUUUCACCAAUCCCAGGAGGUGGUUUGCUCUGCAGCAACAGAGGAUUGAGCAUCA

This is one part of the list.

This experiment concerns the target T1, UNK ZnF1-3 (human, UniProt Q9C0B0 31-174).
T1 sequence: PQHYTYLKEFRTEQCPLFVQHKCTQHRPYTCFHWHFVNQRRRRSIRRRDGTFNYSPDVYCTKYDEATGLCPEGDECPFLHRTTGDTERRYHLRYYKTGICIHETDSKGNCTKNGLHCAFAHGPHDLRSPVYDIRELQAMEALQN
Briefly: nsRBNS (natural sequence RNA bind-n-seq); RBNS binding buffer (assumed for nsRBNS): 25 mM Tris pH 7.5, 150 mM KCl, 3 mM MgCl2, 0.01% Triton X-100, 500 ug/ml BSA, 20 U/ml SUPERase-In, 4 C; UNK is unkempt and MSI1 is Musashi-1; names of the RNAs are library labels; protein concentration not given here; high values mean tight binding.
The molecule B1 displayed a binding signal of 1.18 enrichment R. For B2 the value was 0.668 enrichment R; for B3, 0.777 enrichment R; for B4, 0.909 enrichment R.

B5 gave a binding signal of 1.18 enrichment R. For B6 the value was 1.44 enrichment R; for B7, 0.666 enrichment R; for B8, 1.04 enrichment R. For B9 the value was 0.857 enrichment R; for B10, 0.712 enrichment R; for B11, 0.388 enrichment R. The value for B12 was 0.446 enrichment R; that for B13 was 1.87 enrichment R. In turn, B14 gave a binding signal of 2.91 enrichment R. For B15, the binding signal turned out to be 0.685 enrichment R. For B16 the value was 2.29 enrichment R. For B17 the value was 1.56 enrichment R. Take B18: the binding signal is 2.13 enrichment R.

B19 gave a binding signal of 1.95 enrichment R.

Molecule B20 registered a binding signal of 1.01 enrichment R. The value for B21 was 0.8 enrichment R; that for B22 was 0.999 enrichment R.
